# Source: PubChem BioAssay AID588855 (National Center for Advancing Translational Sciences (NCATS), 2011)
# About 5,000 (1.2%) of roughly 410,000 compounds were called active. Inconclusive results, whose numbers are uncertain, are shown with a selection of clear calls. Calls follow the shape of the dose curve; as a rule, active = well fitted inhibition curve with a large enough effect; inconclusive = small, poorly fitted or top-dose-only effect; inactive = no such curve, though single readings can be large or run the other way. Potencies of inconclusive entries are doubtful fits and often do not repeat.
# Assay: qHTS for Inhibitors of TGF-b; also: nearly all actives have a fitted effect of over 65% in size
# Details: HepG2 CAGA-GFP TGF-b/SMAD3 reporter, GFP fluorescence, 18 h, TGF-beta stimulated, 500 pg/mL final; series mostly up to 46.1 µM; activity, negative = inhibition: at the top concentration
# Summary of the method: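 HEPG2 CAGA-GFP cells (1000/well, DMEM with 1% FBS) were pre-incubated 2 h at 37 degrees C, given compound by pin tool, then stimulated with TGF-beta at 500 pg/mL final for 18 h before per-cell GFP fluorescence imaging.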
# % is scaled to controls: 0 for no effect and ±100 for the full control effect; potency is read from the fitted curve at half-maximal effect; tags tell the direction and shape of the fitted curve.
SMILES,Potency,"activity, negative = inhibition"
CC(CC1C(C#N)=C(N)SC(N)=C1C#N)c1ccccc1 (stereo not drawn),"inconclusive: 7.94 µM [inhibitor, partial curve, poor fit]",–
Cc1c(O)nc(SCC(=O)Nc2ccc3c4c(cccc24)CC3)n(-c2ccc(F)cc2)c1=O,"inconclusive: 35.5 µM [inhibitor, single point]",–
Cc1ccc(C)c(N2CCN(C(=O)Cn3c(=O)c4cccn4c4ccc(F)cc43)CC2)c1,"inconclusive: 1.78 µM [inhibitor, partial curve, poor fit]",–
CCOC(=O)C1=C(O)c2ccccc2C(=O)/C1=C\c1ccc(C)cc1,"inconclusive: 7.08 µM [inhibitor, partial curve]",–
O=C1Nc2ccccc2CN2C(=O)c3cc(Cl)ccc3NC(=O)C12 (stereo not drawn),–,inactive: -13.6%
CCCCC(CC)CNC(=O)CCCc1nnc2n(CCC)c(=O)c3sccc3n12 (stereo not drawn),"inconclusive: 10 µM [inhibitor, partial curve]",–
COc1ccc(C2CCCN2C(=S)Nc2c(C)cccc2C)cc1OC (stereo not drawn),"inconclusive: 6.31 µM [inhibitor, single point]",–
CCOC(=O)C1CCN(C(=O)CSc2n[nH]c(-c3ccccc3)n2)CC1,"inconclusive: 35.5 µM [inhibitor, single point]",–
Cc1cccc(OCc2nc(C#N)c(NCc3ccccc3Cl)o2)c1,"inconclusive: 8.91 µM [inhibitor, partial curve, poor fit]",–
CCOC(=O)Cn1ncc(-c2ccccc2)c1N,–,inactive: -0.185%
C[C@@H]1CCCCCCCCC(=O)OCCN[C@H](C)CCCCCCCCC(=O)OCCN[C@H](C)CCCCCCCCC(=O)OCCN1,active: 15.8 µM,–
O=[N+]([O-])c1ccc(/C=C/c2ccc3cccnc3c2)cc1,"inconclusive: 15.8 µM [inhibitor, partial curve, poor fit]",–
C#CCOCC1CN(C)C(=O)O1 (stereo not drawn),"inconclusive: 0.112 µM [inhibitor, full curve, poor fit]",–
COc1ccc(NC(=O)COCc2cc(-c3ccco3)on2)cc1,"inconclusive: 7.08 µM [inhibitor, partial curve, poor fit]",–
CC(=O)CC1(C)OC(N)=C(C#N)C1(C#N)C#N (stereo not drawn),"inconclusive: 5.62 µM [inhibitor, single point]",–
Cc1cccc(OCC(=O)N/N=C\c2cc3c(cc2[N+](=O)[O-])OCO3)c1C,–,inactive: -21.9%
COc1ccc2cc(C(=O)/C=C/c3cc(OC)c(O)c(OC)c3)ccc2c1,"inconclusive: 22.4 µM [inhibitor, single point]",–
Nc1cccc(-c2nc3cc(S(=O)(=O)c4ccc5oc(-c6cccc(N)c6)nc5c4)ccc3o2)c1,"inconclusive: 4.47 µM [inhibitor, full curve]",–
